Measured values reported in PubChem BioAssay AID1347120 (National Center for Advancing Translational Sciences (NCATS), 2019).
Out of some 390,000 compounds screened, about 930 (0.24%) were called active. The shares of active, inactive and inconclusive entries below differ from those in the screen. Calls follow the shape of the dose curve; as a rule, active = well fitted activation curve with a large enough effect; inconclusive = small, poorly fitted or top-dose-only effect; inactive = no such curve, though single readings can be large or run the other way. A potency beside an inconclusive call is a rough fit, not a confirmed value.

Assay: qHTS for Suppressors of FUS Proteinopathy: Primary screen using FUS-linked yeast assay; also: nearly all actives have a fitted effect of over 55% in size
Conditions: S. cerevisiae FUS-expressing, OD600, 24 h; Potency: growth rescue; series mostly up to 76.6 µM
Summary of the method: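 Toxicity suppression screen in FUS-yeast. Cells induced with 2% galactose, starting OD 0.005, treated 24hr at 30C with compounds at multiple final concentrations; growth by OD600.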
Potency is read from the fitted curve at half-maximal effect; tags tell the direction and shape of the fitted curve.

Structure (SMILES)	Potency
CC(C)(C)c1ccc(CN(Cc2ccccc2)C(c2ccccn2)c2nnnn2C(C)(C)C)cc1 (stereo not drawn)	inconclusive: 22.4 µM [activator, partial curve, poor fit]
Cc1ccc(NS(=O)(=O)c2ccc3c(c2)[C@H]2C=CC[C@H]2[C@@H](c2ccc(F)cc2)N3)cc1C	inconclusive: 39.8 µM [activator, single point]
CCOC(=O)c1c(C)[nH]c(C(=O)OCC(=O)N2CCc3ccccc32)c1C	inconclusive: 6.31 µM [activator, partial curve]
O=S(=O)(Nc1cc(Sc2ncn[nH]2)c(O)c2ccccc12)c1ccccc1	inactive
Nc1ccc(Sc2cnn(-c3ccccc3)c(=O)c2Cl)cc1	inconclusive: 44.7 µM [activator, partial curve, poor fit]
CC(C)C[C@H]1CNC(=S)N1C[C@H]1CCCN1C[C@H](Cc1ccc(O)cc1)N1C[C@H](Cc2ccccc2)N(CC2CCCCC2)C1=S	inconclusive: 50.1 µM [activator, single point]
O=C(Cc1ccccc1)N/N=C/c1cccn1-c1ccc([N+](=O)[O-])cc1	inconclusive: 14.1 µM [activator, partial curve]
Cc1ccc(C)c(N2CCN(C(=O)c3ccc4nc(-c5ccco5)c(-c5ccco5)nc4c3)CC2)c1	inconclusive: 31.6 µM [activator, single point]
C=CC[C@@H](CC(=O)N[C@H](CO)Cc1ccccc1)C(=O)N[C@H](COC(=O)[C@@H](CC=C)Cc1ccc(F)cc1)Cc1c[nH]c2ccccc12	inconclusive: 10 µM [activator, full curve]
COc1ccc(N2CCN(CCCNC(=O)CCc3cccc(F)c3)CC2)cc1	inactive
CC(=O)Nc1cc(-c2ccc(F)cc2)cn2c(-c3ccc(F)c(Cl)c3)cnc12	inactive
CCCNc1nc(Nc2ccc(C)cc2)nc(N2CCCC2)n1	inactive
CC1Cc2cc(/C(O)=C3/C(=O)C(=O)N(CCN4CCOCC4)C3c3ccc([N+](=O)[O-])cc3)ccc2O1 (stereo not drawn)	inconclusive: 10 µM [activator, partial curve, poor fit]
CC(=O)C1=CCC(c2ccc(Cl)cc2)N(S(=O)(=O)c2ccccc2C)C1 (stereo not drawn)	inconclusive: 50.1 µM [activator, single point]
O=C(C[C@@H]1C/C=C\C[C@H](NC(=O)OCC2c3ccccc3-c3ccccc32)C(=O)OC[C@H]2CCCN2C1=O)N[C@H](CO)Cc1ccccc1	inconclusive: 31.6 µM [activator, single point]
COc1ccc(OC)c(NC(=O)CSC2=Nc3ccccc3C3=NC(CC(=O)NCc4ccc(F)cc4)C(=O)N23)c1 (stereo not drawn)	inconclusive: 35.5 µM [activator, single point]
CCC(C(=O)Nc1cc(C)nn1-c1nc(C)cc(C)n1)c1ccccc1 (stereo not drawn)	inconclusive: 28.2 µM [activator, partial curve, poor fit]
CC(C)c1ccc(NS(=O)(=O)c2ccc3[nH]cc(C(=O)NCC4CCCO4)c(=O)c3c2)cc1 (stereo not drawn)	inconclusive: 28.2 µM [activator, single point]
CSc1ccc(C(=S)N2CCCCCC2)cc1	inactive
CC1Cc2ccccc2N1S(=O)(=O)c1cccc(C(=O)N2Cc3ccccc3CC2C(N)=O)c1 (stereo not drawn)	inconclusive: 12.6 µM [activator, partial curve]
Clc1ccc(COn2c(-c3ccc(Cl)cc3Cl)nc3ncccc32)cc1	inconclusive: 28.2 µM [activator, single point]

Structure (SMILES)	Potency
C=CCOc1ccc(C2C(C#N)=C(N)N(Nc3ccccc3)C3=C2C(=O)CC(C)(C)C3)cc1OC (stereo not drawn)	inconclusive: 28.2 µM [activator, single point]
O=C(NCC(c1ccco1)N1CCN(c2ccccc2F)CC1)c1ccco1 (stereo not drawn)	inactive
COc1ccccc1NC(=O)C1CCCN(c2cnccn2)C1 (stereo not drawn)	inactive
Cc1ccc(Cn2c(SCC(=O)NCc3ccccc3Cl)nc3ccsc3c2=O)cc1	inactive
CCOC(=O)c1cc2c(=O)n3ccccc3nc2n(Cc2ccco2)c1=NC(=O)c1cccc(F)c1	inconclusive: 39.8 µM [activator, single point]
Fc1ccc(Nc2nc(SCc3ccccc3F)nc3ccccc23)cc1	inactive
Cc1ccc2cc(C3C(C#N)=C(N)Oc4c3ccc3cccnc43)c(=O)[nH]c2c1 (stereo not drawn)	active: 28.2 µM
Cc1cccc(NC(=O)c2sc3nc4c(cc3c2N)CN(C(C)C)CC4)c1	inconclusive: 31.6 µM [activator, single point]
COc1cc2ccccc2cc1C(=O)NC1CCCC1	inactive
CCN1CCCC1CNC(=O)c1ccc2c(c1)NC(=O)/C(=C\c1ccccc1Cl)S2 (stereo not drawn)	inconclusive: 15.8 µM [activator, partial curve]
N#Cc1cc(C(=O)c2ccccc2O)cn(-c2ccc(Cl)cc2)c1=O	inactive
COc1cc(N2C(=O)c3ccccc3C2=O)c(Cl)cc1C(=O)OCC(=O)NCc1ccco1	active: 15.8 µM
COCCCN1C(=O)c2[nH]nc(-c3ccccc3O)c2C1c1ccc(OCc2ccccc2)cc1 (stereo not drawn)	inconclusive: 22.4 µM [activator, single point]
CC(C)C(=O)N1CCC2(CC1)Oc1ccc(F)cc1C(=O)C21CC(c2ccccc2)=NO1 (stereo not drawn)	inconclusive: 28.2 µM [activator, single point]
Cc1ccc(NC(=O)Cn2c(=O)n(CCCCC(=O)NCCc3ccc(Cl)cc3)c(=O)c3ccccc32)cc1	inactive
COC(=O)c1cc(C(=O)c2cccc(Cl)c2Cl)cn1C	inactive
O=C(NCc1ccccc1)C(c1ccncc1)n1c(=O)c(-c2cc3ccccc3[nH]2)nc2ccccc21 (stereo not drawn)	inconclusive: 15.8 µM [activator, partial curve, poor fit]
O=C(c1ccc(S(=O)(=O)N2CCCCC2)cc1)N1CCN(c2ccccc2)CC1	inconclusive: 39.8 µM [activator, single point]
COc1cc(-c2coc3c(C(=O)Nc4ccc(C(C)C)cc4)cccc23)ccc1O	inconclusive: 50.1 µM [activator, single point]
CCOc1ccc(C(=O)Oc2cc(C)[nH]c(=O)c2[N+](=O)[O-])cc1	inactive
CC(=O)c1ccc(OCCCC(=O)N2CCN(S(=O)(=O)c3ccc(C(C)C)cc3)CC2)cc1	inconclusive: 20 µM [activator, single point]

Structure (SMILES)	Potency
O=C(COC(=O)C(Cc1c[nH]c2ccccc12)NC(=O)c1ccc(Cl)cc1)c1ccc(Cl)cc1 (stereo not drawn)	inconclusive: 10 µM [activator, partial curve, poor fit]
O=C(NC(=S)NC1CCCCC1)c1ccc(F)cc1	inactive
Cc1cc(C)c(NC(=O)CCn2c(=O)c3cccn3c3ccccc32)c(C)c1	inactive
COC(=O)c1cc(-c2ccc(Oc3ccccc3)cc2)c(=O)n2c1CCC2	inconclusive: 17.8 µM [activator, partial curve, poor fit]
COc1ccc(OC)c(Nc2ncnc3c2nc2n3CCCC2)c1	inactive
COc1cc(CCNC(=O)c2ccc3c(c2)c(C)c(C)n3Cc2cccc(C)c2)cc(OC)c1OC	inconclusive: 50.1 µM [activator, single point]
Cc1ccc(S(=O)(=O)N2CCOCC2)cc1NC(=O)COC(=O)CNC(=O)c1ccc(Oc2ccccc2)cc1	inconclusive: 50.1 µM [activator, single point]
Cc1[nH]c2ccccc2c1CCN(Cc1cccs1)C(=O)Nc1cccc2c1OCO2	inconclusive: 12.6 µM [activator, partial curve, poor fit]
CSCCC1NC2(C(=O)Nc3c(C)cc(Cl)cc32)[C@@H]2C(=O)N(C3CCCC3)C(=O)[C@H]12 (stereo partly drawn)	inconclusive: 31.6 µM [activator, single point]
CCOc1ccc(NC(=O)c2nc3nc(C)cc(C(F)F)n3n2)cc1	inactive
Cc1ccc(NC(=S)NCc2ccccc2)cc1S(=O)(=O)N1CCCCC1	inconclusive: 28.2 µM [activator, single point]
COC(=O)C1CN(Cc2ccc(F)cc2)CCS(=O)(=O)N1Cc1cn(Cc2ccc(C)cc2)nn1 (stereo not drawn)	inactive
COc1ccc(CNCC(O)COc2ccc(C(C)(C)c3ccccc3)cc2)cc1 (stereo not drawn)	inconclusive: 35.5 µM [activator, single point]
Cc1ccc(NC(=O)c2ccc(CNS(=O)(=O)c3ccc4c(c3)C(C)(C)C(=O)N4C)cc2)cc1C	inconclusive: 50.1 µM [activator, single point]
COc1ccc(CCNC(=O)CC2Nc3ccccc3NC2=O)cc1 (stereo not drawn)	inconclusive: 14.1 µM [activator, partial curve, poor fit]
CCOc1cc(N2CCOCC2)c(OCC)cc1NC(=O)Cc1cccc2ccccc12	inactive
O=C(Nc1ccc(Nc2ccccc2)cc1)c1ccc(Cl)c([N+](=O)[O-])c1	inconclusive: 31.6 µM [activator, single point]
Cc1ccc(NC(=O)C2CCN(S(=O)(=O)c3c(C)noc3/C=C/N(C)C)CC2)cc1	inconclusive: 50.1 µM [activator, partial curve, poor fit]
CCc1ccccc1NC(=O)c1ccc2c(SCC(=O)O)c3c(nc2c1)CCC3	inactive
CCOC(=O)C1CCN(C(=O)c2ccc(NC(=O)c3nsc4ccccc34)cc2)CC1	inconclusive: 22.4 µM [activator, partial curve, poor fit]
CCOc1ccc(C2c3c(oc4ccc(C)cc4c3=O)C(=O)N2CCCN(C)C)cc1 (stereo not drawn)	inactive
